From publication PMC4336329 (PLoS ONE, 2015)
Among all 310,000 compounds or so, about 14,000 (4.5%) showed an effect of 50% or more. Effects have a minus sign here. The list shows a part of the results.

Biological target: human ether-à-go-go-related gene (hERG) potassium channel (human, UniProt Q12809)
Assay: primary screen, population patch clamp on CHO cells stably expressing hERG
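Further: peak tail current of the secondary pulse compared with the same well before compound.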

human ether-à-go-go-related gene (hERG) potassium channel, sequence (Q12809 whole entry, looked up): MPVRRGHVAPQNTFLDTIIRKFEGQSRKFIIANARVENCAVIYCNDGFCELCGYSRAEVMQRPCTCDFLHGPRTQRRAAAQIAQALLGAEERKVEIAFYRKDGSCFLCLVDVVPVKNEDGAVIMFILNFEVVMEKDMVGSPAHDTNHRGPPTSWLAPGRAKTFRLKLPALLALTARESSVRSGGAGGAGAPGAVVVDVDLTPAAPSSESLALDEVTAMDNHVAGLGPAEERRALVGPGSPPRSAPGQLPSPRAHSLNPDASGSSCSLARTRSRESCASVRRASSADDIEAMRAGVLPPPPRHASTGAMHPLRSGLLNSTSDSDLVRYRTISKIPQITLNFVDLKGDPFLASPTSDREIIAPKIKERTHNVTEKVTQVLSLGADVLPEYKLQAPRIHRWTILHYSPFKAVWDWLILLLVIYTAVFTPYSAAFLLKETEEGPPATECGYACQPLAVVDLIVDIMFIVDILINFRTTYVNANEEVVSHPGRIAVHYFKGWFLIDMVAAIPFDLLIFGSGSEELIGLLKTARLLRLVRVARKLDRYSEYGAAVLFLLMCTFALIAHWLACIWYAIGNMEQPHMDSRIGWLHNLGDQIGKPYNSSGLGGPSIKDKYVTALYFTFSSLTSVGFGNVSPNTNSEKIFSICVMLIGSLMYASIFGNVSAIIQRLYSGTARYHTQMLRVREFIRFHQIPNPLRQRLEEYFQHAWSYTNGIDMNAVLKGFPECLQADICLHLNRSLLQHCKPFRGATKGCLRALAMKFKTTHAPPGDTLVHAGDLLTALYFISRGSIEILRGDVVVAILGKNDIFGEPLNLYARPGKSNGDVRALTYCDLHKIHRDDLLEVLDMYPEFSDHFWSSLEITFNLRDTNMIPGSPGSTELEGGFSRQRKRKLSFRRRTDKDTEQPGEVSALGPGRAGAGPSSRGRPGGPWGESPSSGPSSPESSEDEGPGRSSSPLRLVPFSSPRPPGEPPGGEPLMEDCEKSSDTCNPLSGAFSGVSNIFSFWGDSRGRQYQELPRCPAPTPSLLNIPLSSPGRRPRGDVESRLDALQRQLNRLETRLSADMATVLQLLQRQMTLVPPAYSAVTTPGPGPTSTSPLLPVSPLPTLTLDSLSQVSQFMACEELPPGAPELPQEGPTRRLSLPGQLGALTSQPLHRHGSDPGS

SMILES	hERG current change (%, negative = inhibition) at 10uM [%]
Cn1nc(C(=O)OCC(=O)NCCc2ccccc2)c2ccccc2c1=O	2.9
COc1ccc(NC(=O)NNc2cc(N3CCOCC3)nc(N3CCOCC3)n2)cc1	9.54
Cc1c(Cl)cccc1NC(=O)CCS(=O)(=O)c1cccc2nonc12	12.8
O=C(CN1CCc2ccccc2C1)Nc1cc(S(=O)(=O)N2CCOCC2)ccc1N1CCCC1	0.983
CCn1cc(S(=O)(=O)Nc2cccnc2)cn1	13.5
CC(=O)Oc1c(-c2ccco2)oc2ccccc2c1=O	-3.95
Cc1cccc(NC(=S)N2CCN(c3cc(C)ccc3C)CC2)c1	17.1
O=C(CN1C(=O)c2ccccc2C1=O)Nc1cccnc1	11.8
CC(C)(C)c1ccc(O)c(N=Cc2c(O)ccc3ccccc23)c1	5.91
CS(=O)(=O)N(CC(=O)Nc1ccc2c(c1)OCCO2)Cc1ccccc1	13
COc1ccccc1N(C)S(=O)(=O)c1ccc(Cl)c(C(=O)NC2=NCCS2)c1	31.6
Cn1cccc1C(=O)N1CCc2ccccc2C1	9.85
CCCCOc1ccc(C2/C(=C(\O)c3ccc4c(c3)OCCO4)C(=O)C(=O)N2CCCN2CCOCC2)cc1 (stereo not drawn)	24.5
COc1cc(NC(=O)c2cc([N+](=O)[O-])ccc2NC(=O)CNCc2ccccn2)cc(OC)c1	3.3
O=C(COC(=O)c1cnccn1)c1ccc2ccccc2c1	2.53
CCOCC(=O)Nc1ccc2c(c1)OCCO2	19.6
CC(=O)N1CCc2cc(C(=O)CN3CCN(C(=O)c4ccco4)CC3)ccc21	6.01
O=C(Cn1c(NCCO)nc2ccccc21)NCCc1ccc(F)cc1	10.6
Cc1ccc(C(C)C)c(OCc2ccc(C(=O)N/N=C/c3ccc(O)c(O)c3)cc2)c1	10.5
Cc1cnc(NC(=O)c2ccc(Cl)nc2)s1	13.4
CC(C)OCCCNC(=O)c1ccc2c(=O)n(Cc3ccc4c(c3)OCO4)c(=S)[nH]c2c1	21.3
CCS(=O)(=O)N1CCC(C(=O)NCc2ccco2)CC1	3.42
CC(C)C1Cc2c(sc3[nH]c(=S)n(Cc4ccccc4)c(=O)c23)CO1 (stereo not drawn)	17.6

SMILES	hERG current change (%, negative = inhibition) at 10uM [%]
COc1ccc2c(CC(=O)NCC3CCC(C(=O)O)CC3)cc(=O)oc2c1 (stereo not drawn)	6.04
O=C(O)CCn1cc(C=C2C(=O)NC(=S)NC2=O)c(-c2cccc(Br)c2)n1	34.4
CSc1ccccc1OCc1cc(C(=O)N(C)Cc2ccc(C)o2)no1	-11.9
CCc1cc(=O)oc2cc(OCC(=O)OC)c(Cl)cc12	-20.5
CN(C)c1ccc(C(=O)Nc2cc(C(F)(F)F)ccc2-n2cncn2)cc1	-4.97
CC(C)n1ncc2c(C(=O)N3CCN(Cc4ccc(Cl)s4)CC3)cc(C3CC3)nc21	-13.7
CC(C)(C)NS(=O)(=O)c1ccc(CCC(=O)Nc2ccc3c(c2)OCO3)cc1	1.25
CCOC(=O)c1sc(=S)n(C)c1NC(=O)c1ccccc1	19.6
Cc1cccc(NC(=S)NC2CCCCCC2)c1C	14.7
COc1ccc2c(=O)c3c(=O)n(CCc4ccccc4)c(C(C)C)nc3oc2c1	5.79
COc1ccc(NC(=O)c2ccc3c(c2)N(C)CCS3)cc1	2.65
CC(CN1CCOCC1)OC(=O)c1ccc(C(C)(C)C)cc1.Cl (stereo not drawn)	4.47
O=C(Nc1ccccc1N1CCCC1)c1cc2ccccc2o1	6.18
O=C(CN1C(=O)c2ccccc2S1(=O)=O)c1cccc(Br)c1	12.5
O=C(NCC(F)(F)F)c1nn(Cc2ccccc2)c(=O)c2ccccc12	5.37
CNc1ccccc1C(C)(C)c1cn(-c2ccc([N+](=O)[O-])cc2)nn1	3.21
COc1ccc(NC(=O)c2nc3nccc(C)n3n2)cn1	6.23
Br.Cc1ccc(C)c(C(=O)Cn2c(NCCO)nc3ccccc32)c1	6.12
O=C(c1cn[nH]c1)c1cc(F)ccc1O	-2.62
CN(C)Cc1c(C(=O)N/N=C/CCc2ccccc2)nnn1-c1nonc1N	-31.1
Cc1cccc(Nc2nc(C)cc(C)n2)c1.Cl	18.2
COc1cc(NC(=S)NC(=O)c2c(OC)cccc2OC)ccc1NC(=O)c1cccs1	-3.22
